Test results as given in ChEMBL document CHEMBL4888484, “Replenishing the malaria drug discovery pipeline: Screening and hit evaluation of the MMV Hit Generation Library 1 (HGL1) against asexual blood stage Plasmodium falciparum ,using a nano luciferase reporter read-out” (2022).
The whole screen tested about 150,000 compounds, of which about 540 (0.36%) showed an effect of 50% or more. The list shows a part of the results.

What follows are compounds tested on Plasmodium falciparum (assay: Primary screen in NF54 nanoGlo assay, in single point, at 2uM, 72h; a lower Z score goes with more inhibition). Details: timepoint 72 hour.
Assay type: functional, Erythrocyte

Structure (SMILES) | % Inhibition | Z score
CCS(=O)(=O)N1CCC[C@H](c2ccn(C)n2)C1 | -12% | 1.49
O=C(CN1CCc2nocc2C1)NCC1CCCCC1 | 8% | -1.09
CC1CN(Cc2sccc2NC(=O)OC(C)(C)C)CC(C)O1 (stereo not drawn) | -2% | 0.34
Cc1nc(N2CCC(CNC(=O)[C@H]3CCOC3)CC2)ccc1F | 12% | -1.64
O=C(NC1CCCCC1)c1ccc(CN2C(=O)CCn3nc(-c4ccccc4)cc32)cc1 | 6% | -0.76
Cc1ccc(CNC(=O)[C@H]2CCC(=O)N(C3CCCCCC3)C2)o1 | -15% | 1.37
O=C(N[C@@H](Cc1ccccc1)C(=O)N1CCCC1)c1cc(F)cc2cccnc12 | -5% | 0.7
O=C(O)c1cc(-n2ncc3cccnc32)cc(S(=O)(=O)N2CCCCCC2)c1 | -15% | 1.99
COc1ncccc1C(=O)N[C@H]1CC(=O)N(CC(C)(C)C)C1 | -5% | 0.67
O=C1CC[C@@]2(CCCN(c3ccncc3F)C2)CN1Cc1ccccn1 | 5% | -0.88
O=C(O)[C@@H]1CCCN1C(=O)c1cc(Cl)sc1Cl | 5% | -0.76
Cc1ccnc(NC(=O)[C@]2(OC(C)C)CCOC2)c1C1CC1 | 18% | -2.1
C=CCNC(=O)N(Cc1ccccn1)c1ccc(Oc2cccc(C)c2C)nc1 | 42% | -5.63
Cc1ccc(N2CCCN(Cc3ccc(C)c(C)c3)C2=O)c(NC(=O)NCc2ccccc2)c1 | -4% | 0.37
CC(C)CNC(=O)N1CCN(Cc2nc3ccc(Cl)cc3o2)CC1 | -18% | 1.59
Cc1ccc(OC[C@H]2CCCN2C)nc1 | -5% | 0.75
O=C(NCc1ccccc1)N1CC[C@H](S(=O)(=O)c2ccccc2)C1 | -10% | 1.65
Cc1ncc(CNc2ccc(Br)cc2CO)o1 | -7% | 0.95
CC(C)n1ccc(C(=O)Nc2cccc(C3CC(=O)NC(=O)C3)c2)n1 | 5% | -0.53
CC(C)Cc1noc(CNC(=O)c2nn(C)cc2Cl)n1 | -7% | 1.19
C[C@@H]1CN(C(=O)c2csc(C(F)(F)F)n2)CCN(C2CC2)C1 | 17% | -2.19

Structure (SMILES) | % Inhibition | Z score
CC1CCC(=O)N1c1ccc(N2CCC(NC[C@H]3CCCO3)CC2)cc1 (stereo partly drawn) | -9% | 1.31
CCOC(=O)c1c(S(=O)(=O)NCC(=O)Nc2ccc(C)cc2C)c(C)n(CC)c1C | -13% | 1.18
O=C(Cc1cccnc1)Nc1ccc(O)cc1 | -1% | 0.22
COc1cccc(C2(C(=O)N(C)c3nnc(C)s3)CCCC2)c1 | 9% | -0.76
CCC(NC(=O)c1ccc2c(C)cc(C)nc2c1)[C@H]1C[C@H](O)C1 (stereo partly drawn) | 2% | -0.35
O=C(Nc1ccc(-c2nnc3n2CCCCCC3)cc1)c1cc(F)cc(F)c1 | -15% | 2.84
O=C1C[C@H](NC(=O)C2(C3CCC3)CCC2)CN1 | -11% | 1.14
O=C(c1nc2ccccc2s1)N1CCC(Cn2cnc3ccccc32)CC1 | 0% | 0
O=C(Cc1csc(-c2ccccc2)n1)N1CCS(=O)(=O)CC1 | -8% | 1.32
Cn1c(C(=O)N[C@H]2CCS(=O)(=O)C2)cc(Cl)c1Cl | -6% | 1.27
C[C@H](NC(=O)OCc1ccccc1)C(=O)NC1CCCC1 | -8% | 1.24
Cc1n[nH]c(C)c1CNC(=O)NC1CCCCC1C(F)(F)F (stereo not drawn) | 3% | -0.38
Cc1ccc(N2CCC3(CC2)CC(=O)N(Cc2c(C)noc2C)C3)nn1 | -12% | 1.26
O=C(CNS(=O)(=O)c1cccc(C(=O)N2CCC2)c1)NC1CC1 | -19% | 2.71
C[C@@H](c1nnnn1C)N(C)Cc1nccn1CC(F)(F)F | -24% | 2.18
COc1cc(OC)c(S(=O)(=O)NC(C)C)cc1S(=O)(=O)NC(C)C | 38% | -1.01
O=C(CN1C=NS(=O)(=O)c2ccccc21)Nc1cccc(Cl)c1 | -12% | 1.48
Cc1cccc(N(C(=O)CC2CCC2)C2CCOCC2)c1 | 6% | -0.75
CCN([C@@H](C)Cc1ccc(OC)cc1)S(=O)(=O)c1cccnc1 | 0% | 0.01
COCCN1CC(=O)N[C@H]2CN(Cc3ccc4cc[nH]c4n3)C[C@@H]2OCc2cccc(c2)Oc2cc(ccc2OC)CCC1=O | 13% | -1.82
CC[C@H](C)N(Cc1cc(NC(=O)C2CCC2)ccc1N(C)C)C(=O)NC(C)(C)C | 2% | -0.34

Structure (SMILES) | % Inhibition | Z score
O=C1N[C@@H](c2ccccc2)C(=O)Nc2ccccc21 | -3% | 0.43
Cc1cc(S(=O)(=O)NC(=O)c2c[nH]c(C#N)c2)c(C)s1 | 6% | -0.61
C[C@]1(O)CCOC2(CCN(Cc3ccc[nH]3)CC2)C1 | -9% | 1.5
O=C(c1n[nH]c2ccccc12)N1CCC(Oc2ccc(Cl)cc2)CC1 | -20% | 2.5
CC(C)(C)CN[C@H]1CCCc2cn(CC(N)=O)nc21 | 23% | -2.36
CC1CN(S(=O)(=O)N2CCCC(c3cn[nH]c3)C2)CC(C)O1 (stereo not drawn) | -12% | 1.37
CCOc1ccc(C(=O)N[C@H](CO)Cc2cncs2)cc1 | 11% | -1.23
C[C@@H](NC(=O)c1cccnc1)C(=O)NC1CCN(Cc2ccccc2)CC1 | 5% | -0.72
Cc1[nH]c(=O)c(C#N)cc1C(=O)N[C@H]1CCOC[C@@H]1OCC1CCC1 | -3% | 0.54
Cc1cc(CN(C)C(=O)c2ccc(-c3nc(C)cnc3C)cc2)on1 | -7% | 1.33
CCC(CC)(CNC(=O)[C@@H]1CCCCN1C(C)C)S(C)(=O)=O | -12% | 2.2
O=C(Nc1ccc(Cl)cc1)c1cn2c3c(cccc3c1=O)CC2 | 8% | -0.99
CCC(C)N1C2OC(C3OC4C(O3)N(C(C)CC)S(=O)(=O)N4C(C)CC)OC2N(C(C)CC)S1(=O)=O (stereo not drawn) | -18% | 1.93
O=C(CN1CN(c2ccccc2)C2(CCN(C(=O)NC3CCCCC3)CC2)C1=O)NCCc1ccccc1 | 6% | -0.92
CN(Cc1ccc(-c2ccccc2)cc1)c1cc([C@H]2C[C@@H](N)C2)nc(N)n1 | 64% | -8.85
Fc1ccc([C@H](c2nnc(-c3ccccc3)o2)N2CCC3(CC2)OCCO3)cc1 | -20% | 2.23
CC[C@H]1CCCCCN1C(=O)NCC(=O)N(C)CC(F)(F)F | -6% | 0.48
COc1ccccc1N(C)C(=O)C(=O)NC1CC1 | 4% | -0.57
CNc1nccnc1-c1cnc2ccc(C)cc2c1 | -17% | 1.81
CN1C(=O)COC12CCN(CC1CC3(CCC3)C1)CC2 | -8% | 1.24
C=CCC1(CNC2CCC(C(=O)O)CC2)CCCC1 (stereo not drawn) | -16% | 1.84

Structure (SMILES) | % Inhibition | Z score
Cc1cccc(CNC(=O)N2CCC(N3CCC[C@H](O)C3)CC2)c1C | -6% | 1.07
CC(=O)N1CCCC(c2noc(C3CCc4[nH]ncc4C3)n2)C1 (stereo not drawn) | -4% | 0.62
CCCN(Cc1c(C)nn(-c2ccccc2)c1N1CCN(CC)CC1)C(=O)c1ccc2ccccc2c1 | -16% | 1.85
O=C(c1cccc(F)c1F)N1C[C@@H]2CC[C@H]1CN(C1CCOCC1)C2 | -4% | 0.74
Cc1csc(N(CCc2ccccc2)C(=O)c2cnn(C)c2)n1 | 4% | -0.38
CN(C)c1ncc(NC(=O)C2CCCC2)c(N(C)C)n1 | 0% | -0.08
COC(=O)c1ccc(NC(=O)Cn2nc3c(N4CCOCC4)nccn3c2=O)cc1 | 1% | -0.13
C[C@@H](CN1CC2(CCN(Cc3cnn(C)c3C3CC3)CC2)OC1=O)c1ccccc1 | 2% | -0.23
CC1CN(S(C)(=O)=O)C(C)CN1CCOCC(F)F (stereo not drawn) | 6% | -1.07
C[C@H](Oc1cc(Cl)cc(Cl)c1)C(=O)NCCc1cnn(C)c1 | 10% | -1.3
CCCNC(=O)CN1CC[C@H](c2ncccn2)C1 | -10% | 1.61
CC1CCC(N2C[C@@H](C(=O)N(C)CC(=O)NCc3cccs3)CC2=O)CC1 (stereo partly drawn) | -7% | 0.78
COCCN1CC2(CCC1=O)CCN(C(=O)c1csc(C)c1)CC2 | 2% | -0.21
CC(C(=O)Nc1cc(C(F)(F)F)n[nH]1)C1OCCc2sccc21 (stereo not drawn) | 7% | -0.98
CCCn1cc(C(=O)N2CCc3[nH]c(-c4cn[nH]c4)nc3C2)c(C)n1 | 8% | -1.56
CC1(C)CC2=NC(=O)C[C@@H](C(=O)Nc3cc(C(F)(F)F)ccc3Cl)C2=C(O)C1 | 8% | -0.98
Cc1ccncc1CN(C)CCCCC1CCOCC1 | -4% | 0.75
Cc1csc(C(C)CNC(=O)NC2CCN(C(C)C)C2=O)n1 (stereo not drawn) | -5% | 0.51
CS(=O)(=O)NCC1CCC(C(=O)NC2CCN(Cc3ccccc3)CC2)CC1 (stereo not drawn) | -21% | 2.36
NCC1(C(=O)NCc2ccccc2OC2CCC2)CCOCC1 | -11% | 1.25
COc1cnc(N(C)Cc2ccc(-n3cccn3)cc2)nc1 | -4% | 0.7
